Reference: US20040102423A1, “Spironolactone and angiotensin II antagonist combination therapy for treatment of congestive heart failure” (G.D. Searle & Co., priority 1995, published 2004)
Several values for one entry are separate records, joined by “and”; a condition that tells them apart may be missing. Equal values may be shown once. At least one read-out could not be matched to a standard name with certainty.

System: rabbit aortic rings
Test: Assay B: In vitro vascular smooth muscle response for AII (antagonist activity, pA2)
Type: cell-based
Conditions: two values in a cell = two determinations
Description: Assay B: In Vitro Vascular Smooth Muscle-Response for AII
The compounds of the invention were tested for antagonist activity in rabbit aortic rings. Male New Zealand white rabbits (2-2.5 kg) were sacrificed using an overdose of pentobarbital and exsanguinated via the carotid arteries. The thoracic aorta was removed, cleaned of adherent fat and connective tissue and then cut into 3-mm ring segments. The endothelium was removed from the rings by gently sliding a rolled-up piece of filter paper into the vessel lumen. The rings were then mounted in a water-jacketed tissue bath, maintained at 37° C., between moveable and fixed ends of a stainless steel wire with the moveable end attached to an FT03 Grass transducer coupled to a Model 7D Grass Polygraph for recording isometric force responses. The bath was filled with 20 ml of oxygenated (95% oxygen/5% carbon dioxide) Krebs solution of the following composition (mM): 130 NaCl, 15 NaHCO3, […], 1.2 NaH2PO4, 1.2 MgSO4, 2.5 CaCl2, and 11.4 glucose. The preparations were equilibrated for one hour before approximately one gram of passive tension was placed on the rings. Angiotensin II concentration-response curves were then recorded (3×10^−10 to 1×10^−5 M). Each concentration of AII was allowed to elicit its maximal contraction, and then AII was washed out repeatedly for 30 minutes before rechallenging with a higher concentration of AII. Aorta rings were exposed to the test antagonist at 10^−5 M for 5 minutes before challenging with AII. Adjacent segments of the same aorta ring were used for all concentration-response curves in the presence or absence of the test antagonist. The effectiveness of the test compound was expressed in terms of pA2 values and were calculated according to H. O. Schild [Br. J. Pharmacol. Chemother., 2, 189-206 (1947)]. The pA2 value is […] which increases the EC50 value for AII by a factor of two. Each test antagonist was evaluated in aorta rings from two rabbits.

Structure (SMILES)	Assay B pA2
CCCCn1nc(C2OCCCO2)nc1Cc1ccc(-c2ccccc2-c2nnn[nH]2)nc1 [Compound 191]	7.76
CCCCc1cn(C(C)C)c(=O)n1Cc1ccc(-c2ccccc2-c2nnn[nH]2)nc1 [Compound 211]	8.67
CCCCCn1cc(CCCC)n(Cc2ccc(-c3ccccc3-c3nnn[nH]3)nc2)c1=O [Compound 210]	8.44
CCCCc1nn(CC(OCC(=O)OCC)c2ccccc2)c(=O)n1Cc1ccc(-c2ccccc2-c2nn[nH]n2)cc1 (centres unmarked) [Compound 118]	9.17
CCCCCc1nc(CCCCC)n(Cc2ccc(-c3ccccc3-c3nnn[nH]3)cc2)n1 [Compound 24]	7.73
CCCCn1cc(CC(C)C)n(Cc2ccc(-c3ccccc3-c3nnn[nH]3)nc2)c1=O [Compound 199]	8.85
CCCCc1nc(CNC(=O)OC(C)(C)C)n(Cc2ccc(-c3ccccc3-c3nnn[nH]3)cc2)n1 [Compound 45]	8.24
CCCCc1nc(Cl)n(Cc2ccc(-c3ccccc3C(=O)O)cc2)n1 [Compound 19]	5.35
CCCCc1cn(C2CCCCC2)c(=O)n1Cc1ccc(-c2ccccc2-c2nnn[nH]2)nc1 [Compound 216]	9.04
CCCn1nc(C(F)(F)CC)nc1Cc1ccc(-c2ccccc2-c2nnn[nH]2)nc1 [Compound 178]	7.47
CCCCc1nc(C23CC4CC(CC(C4)C2)C3)nn1Cc1ccc(-c2ccccc2-c2nnn[nH]2)cc1 [Compound 67]	5.78
CCCn1nc(C(OC)OC)nc1Cc1ccc(-c2ccccc2-c2nnn[nH]2)nc1 [Compound 185]	8.53
CCCCCc1nc(Cc2ccc(-c3ccccc3-c3nnn[nH]3)nc2)n(CCCC)n1 [Compound 167]	7.11
CCCCc1nc(CCCC)n(Cc2ccc(-c3ccccc3C(=O)O)cc2)n1 [Compound 13]	8.85
CCCCCc1cn(CCCC)c(=O)n1Cc1ccc(-c2ccccc2-c2nnn[nH]2)nc1 [Compound 201]	8.63
CCCCc1cn([C@H]2[C@H](C)CCC[C@@H]2C)c(=O)n1Cc1ccc(-c2ccccc2-c2nnn[nH]2)nc1 [Compound 247]	8.41
CCCn1nc(C(C)(F)F)nc1Cc1ccc(-c2ccccc2-c2nnn[nH]2)nc1 [Compound 176]	7.55
CCCCc1nc(CNC(=O)CCC(NC(C)=O)C(=O)OC(C)(C)C)nn1Cc1ccc(-c2ccccc2-c2nnn[nH]2)cc1 (centres unmarked) [Compound 52]	8.12
CCCCc1nc(-c2ccccc2Cl)nn1Cc1ccc(-c2ccccc2-c2nnn[nH]2)nc1 [Compound 278]	8.51
CCCCc1nc(CNC(=O)OC(C)(C)C)nn1Cc1ccc(-c2ccccc2-c2nnn[nH]2)cc1 [Compound 46]	6.64
CCCCc1nc(CCC(=O)O)nn1Cc1ccc(-c2ccccc2-c2nnn[nH]2)cc1 [Compound 74]	8.39
CCCCc1nc2cnncc2n1Cc1ccc(-c2ccccc2C(=O)O)cc1 [Compound 119]	9.00
CCCCc1ncn(Cc2ccc(-c3ccccc3C(=O)O)cc2)n1 [Compound 30]	7.88

Structure (SMILES)	Assay B pA2
CCCCn1nc(C(C)=O)nc1Cc1ccc(-c2ccccc2-c2nnn[nH]2)nc1 [Compound 194]	7.35
CCCCc1nc(C(F)(F)Cc2ccccc2)nn1Cc1ccc(-c2ccccc2-c2nnn[nH]2)cc1 [Compound 62]	8.61
CCCCCn1nc(CCCC)nc1Cc1ccc(-c2ccccc2-c2nnn[nH]2)nc1 [Compound 166]	7.74
CCCCc1nc(-c2ccccc2Cl)n(Cc2ccc(-c3ccccc3-c3nnn[nH]3)nc2)n1 [Compound 279]	8.25
CCCCc1nc(CCCC)n(Cc2ccc(-n3c(Cl)cc(Cl)c3-c3nnn[nH]3)cc2)n1 [Compound 154]	8.38
CCCCc1cn(-c2c(Cl)cccc2Cl)c(=O)n1Cc1ccc(-c2ccccc2-c2nnn[nH]2)nc1 [Compound 232]	8.89
CCCCc1nc(CCC)n(Cc2ccc(-c3ccccc3-c3nnn[nH]3)cc2)n1 [Compound 26]	9.66
CCCCc1nc(CN)n(Cc2ccc(-c3ccccc3-c3nnn[nH]3)cc2)n1 [Compound 47]	7.58
CCCCc1nc(-c2ccccc2C)n(Cc2ccc(-c3ccccc3-c3nnn[nH]3)nc2)n1 [Compound 273]	8.61
CCCCc1nc(C(F)F)nn1Cc1ccc(-c2ccccc2-c2nnn[nH]2)cc1 [Compound 58]	6.57
CCCCc1nc(CC)n(Cc2ccc(-c3ccccc3-c3nnn[nH]3)cc2)n1 [Compound 51]	8.51
CCCCc1nc(CCCC)n(Cc2ccc(-c3ccccc3-c3nnn[nH]3)cc2)n1 [Compound 14]	8.71
CCCCc1cn(CCC(C)C)c(=O)n1Cc1ccc(-c2ccccc2-c2nnn[nH]2)nc1 [Compound 209]	9.16
CCCCc1nc(Cl)n(Cc2ccc(-c3ccccc3-c3nnn[nH]3)cc2)n1 [Compound 20]	5.99
CCCCn1nc(C(F)F)nc1Cc1ccc(-c2ccccc2-c2nnn[nH]2)nc1 [Compound 174]	7.02
CCCCc1nc(Cc2ccc(-c3ccccc3-c3nnn[nH]3)nc2)n(CC(CC)CC)n1 [Compound 168]	7.58
CCCCc1cn(CC)c(=O)n1Cc1ccc(-c2ccccc2-c2nnn[nH]2)nc1 [Compound 206]	8.89
CCCCc1nc(Cl)c(Cl)n1Cc1ccc(-n2cccc2C(=O)O)cc1 [Compound 158]	8.14
CCCCn1nc(-c2ccccc2Cl)nc1Cc1ccc(-c2ccccc2-c2nnn[nH]2)nc1 [Compound 169]	7.58
CCCCc1cn(-c2c(C)cccc2C)c(=O)n1Cc1ccc(-c2ccccc2-c2nnn[nH]2)nc1 [Compound 233]	8.78
CCCCc1ncnn1Cc1ccc(-c2ccccc2-c2nnn[nH]2)cc1 [Compound 64]	6.77
CCCCc1nc(CCc2ccccc2)n(Cc2ccc(-c3ccccc3-c3nnn[nH]3)cc2)n1 [Compound 36]	5.68
CCCCc1nc(C(OC)OC)nn1Cc1ccc(-c2ccccc2-c2nnn[nH]2)cc1 [Compound 35]	7.47

Structure (SMILES)	Assay B pA2
CCCCc1nc(C(=O)CCC)nn1Cc1ccc(-c2ccccc2-c2nnn[nH]2)cc1 [Compound 41]	5.68 and 5.96
CCCCn1nc(/C=C/c2cccs2)nc1Cc1ccc(-c2ccccc2-c2nnn[nH]2)nc1 [Compound 165]	7.18
CCCCn1cc(C2CCCCC2)n(Cc2ccc(-c3ccccc3-c3nnn[nH]3)nc2)c1=O [Compound 202]	8.64
CCCCc1nc(CCCC)n(Cc2ccc(-c3ccccc3C(=O)NNS(=O)(=O)C(F)(F)F)cc2)n1 [Compound 16]	9.24
CCCCc1nc(CCCC)n(Cc2ccc(-c3cnccc3-c3nnn[nH]3)cc2)n1 [Compound 255]	7.46
CCCCc1nc(CCCC)n(Cc2ccc(-c3ccccc3C(=O)OC)cc2)n1 [Compound 12]	8.59
CCCCc1cn(C)c(=O)n1Cc1ccc(-c2ccccc2-c2nnn[nH]2)nc1 [Compound 205]	9.15
CCCCc1nc(-c2ccccc2OC)nn1Cc1ccc(-c2ccccc2-c2nnn[nH]2)nc1 [Compound 276]	8.64
CCCCc1cn(-c2c(C(C)C)cccc2C(C)C)c(=O)n1Cc1ccc(-c2ccccc2-c2nnn[nH]2)nc1 [Compound 246]	7.59
CCCc1nc(CCC)n(Cc2ccc(-c3ccccc3-c3nnn[nH]3)nc2)n1 [Compound 257]	6.68
CCCCc1cn(-c2ccccc2Cl)c(=O)n1Cc1ccc(-c2ccccc2-c2nnn[nH]2)nc1 [Compound 227]	7.67
CCCCc1nc(-c2c(F)cccc2F)nn1Cc1ccc(-c2ccccc2-c2nnn[nH]2)nc1 [Compound 280]	6.35
CCCCc1nc(Cl)nn1Cc1ccc(-c2ccccc2-c2nnn[nH]2)cc1 [Compound 18]	6.09
CCCCn1cc(C2CCCC2)n(Cc2ccc(-c3ccccc3-c3nnn[nH]3)nc2)c1=O [Compound 203]	8.36
CCCCc1ncn(Cc2ccc(-c3ccccc3-c3nnn[nH]3)cc2)n1 [Compound 65]	7.75
CCCCn1nc(C=O)nc1Cc1ccc(-c2ccccc2-c2nnn[nH]2)nc1 [Compound 190]	7.89
CCCCc1nc(CCCC)n(Cc2ccc(-n3c(Br)ccc3-c3nnn[nH]3)cc2)n1 [Compound 152]	7.23
CCCCc1nc(CCC)nn1Cc1ccc(-c2ccccc2-c2nnn[nH]2)cc1 [Compound 25]	6.73
CCCCc1nc2c(O)nnc(O)c2n1Cc1ccc(-c2ccccc2C(=O)O)cc1 [Compound 120]	8.77
CCCCc1nc(CCCC)n(Cc2ccc(-c3ccccc3C(=O)NN)cc2)n1 [Compound 15]	8.30
COC(=O)CC[C@]1(O)CC[C@H]2[C@@H]3C4CC4C4=CC(=O)CC[C@]4(C)[C@]34OC4C[C@@]21C (some centres unmarked) [Compound 7]	8.05
CCCCc1nc(C(F)(F)CCC)n(Cc2ccc(-c3ccccc3-c3nnn[nH]3)cc2)n1 [Compound 22]	6.46
